{
  "source": "PubChem BioAssay AID2147",
  "about": "(National Center for Advancing Translational Sciences (NCATS), 2009)",
  "note": "In all, about 230,000 compounds went through this assay and about 3,600 (1.6%) were called active. The inconclusive results got no clear call from the source; some entries with a clear call stand among them for comparison. Calls come from the whole dose curve; as a rule, active = well fitted inhibition curve with a large enough effect (not every such curve was filed as active); inconclusive = small, poorly fitted or top-dose-only effect, or another doubt; inactive = no such curve, though single readings can be large or run the other way. A potency beside an inconclusive call is a rough fit, not a confirmed value. Note: nearly all actives have a fitted effect of over 50% in size. Potency is the fitted concentration of half-maximal effect; tags give direction and shape of the fitted curve.",
  "data": [
    {"molecular_target": "Lysine-specific demethylase 4E (Homo sapiens) (UniProt B2RXH2)", "sequence (B2RXH2 whole entry, looked up, the tested form may be a part)": "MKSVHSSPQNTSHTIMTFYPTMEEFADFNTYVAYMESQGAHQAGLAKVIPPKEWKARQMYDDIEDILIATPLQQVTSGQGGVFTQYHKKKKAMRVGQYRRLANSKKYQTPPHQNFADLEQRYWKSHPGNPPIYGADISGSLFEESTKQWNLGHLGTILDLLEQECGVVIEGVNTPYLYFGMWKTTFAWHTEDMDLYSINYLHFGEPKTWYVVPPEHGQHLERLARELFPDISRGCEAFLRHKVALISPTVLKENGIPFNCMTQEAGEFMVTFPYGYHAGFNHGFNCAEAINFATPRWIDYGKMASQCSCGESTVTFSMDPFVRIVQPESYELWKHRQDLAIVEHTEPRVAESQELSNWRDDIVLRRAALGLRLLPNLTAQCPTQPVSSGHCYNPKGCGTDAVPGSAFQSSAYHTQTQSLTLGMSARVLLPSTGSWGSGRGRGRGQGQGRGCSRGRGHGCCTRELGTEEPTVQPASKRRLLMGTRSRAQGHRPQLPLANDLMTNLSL", "experiment": "qHTS Assay for Inhibitors of Human Jumonji Domain Containing 2E (JMJD2E)", "settings": "JMJD2E catalytic domain, FDH-coupled NADH fluorescence (FDH is formaldehyde dehydrogenase); series mostly up to 57.1 µM", "values": [
      {"smiles": "C[N+]12CCCCC1[C@@H](CO)CCC2", "note": "(some centres not stated)", "Potency": "inactive"},
      {"smiles": "CSc1[nH]c(=O)c(C(=O)O)cc1C#N", "Potency": "inconclusive: 28.2 µM [inhibitor, single point]"},
      {"smiles": "O=C(Cn1nnc2c(cnn2-c2ccccc2)c1=O)NCc1cccs1", "Potency": "inconclusive: 35.5 µM [inhibitor, single point]"},
      {"smiles": "CC[n+]1c(/C=C/Nc2ccccc2)oc2ccccc21", "Potency": "inconclusive: 25.1 µM [inhibitor, single point]"},
      {"smiles": "CN(C)c1ccc(CN2CCCCCC2)cc1", "Potency": "inactive"},
      {"smiles": "O=[N+]([O-])c1nn(-c2ccc3c(c2)OCCO3)n(O)c1=NC1CCCC1", "Potency": "inactive"},
      {"smiles": "COc1ccc2nc(SC)c(C#N)cc2c1", "Potency": "inactive"},
      {"smiles": "Cc1cccc(Cc2cnc(NC(=O)c3ccc(C)o3)s2)c1", "Potency": "inconclusive: 39.8 µM [inhibitor, single point]"},
      {"smiles": "CN1CCN(c2nc(-c3cccc(C#N)c3)nc3ccccc23)CC1", "Potency": "inactive"},
      {"smiles": "COc1cccc(C(=O)Nc2nc(-c3ccc4c(c3)OCO4)cs2)c1", "Potency": "inconclusive: 39.8 µM [inhibitor, single point]"},
      {"smiles": "C=C(C)C1Cc2nc(N)nc(C)c2C1", "note": "(configuration not stated)", "Potency": "inconclusive: 39.8 µM [inhibitor, single point]"},
      {"smiles": "COc1cc(-c2nnc(COC(=O)C3c4ccccc4Oc4ccccc43)o2)cc(OC)c1OC", "Potency": "inconclusive: 39.8 µM [inhibitor, single point]"},
      {"smiles": "CN(Cc1nccn1C)C(=O)CCc1nnc(CCC2CCCCC2)o1", "Potency": "inactive"},
      {"smiles": "C=CCn1c(-c2ccc(OC)cc2)nc2nc3ccccc3nc21", "Potency": "inconclusive: 28.2 µM [inhibitor, partial curve]"},
      {"smiles": "N#Cc1c(N)sc2c1CCN(CCc1ccccc1)C2", "Potency": "inconclusive: 28.2 µM [inhibitor, partial curve]"},
      {"smiles": "COCc1cc(C)nc(SCC[N+](C)(C)CC(=O)c2ccc(Br)cc2)c1C#N", "Potency": "inconclusive: 39.8 µM [inhibitor, single point]"},
      {"smiles": "c1csc(-c2cnc3ccccc3n2)c1", "Potency": "inconclusive: 25.1 µM [inhibitor, partial curve]"},
      {"smiles": "Cc1ccc2c(c1)c(CC(=O)Nc1ccc(F)cc1)c(C(=O)O)n2C", "Potency": "inconclusive: 35.5 µM [inhibitor, single point]"},
      {"smiles": "c1ccc(C2CCC3(CC2)Oc2ccccc2C2CC(c4cccnc4)=NN23)cc1", "note": "(configuration not stated)", "Potency": "inconclusive: 39.8 µM [inhibitor, single point]"},
      {"smiles": "COc1cccc(Oc2cnc(N)nc2-c2ccc(OC)cc2O)c1", "Potency": "inactive"},
      {"smiles": "N#Cc1c(-c2ccccc2Cl)cc(-c2ccccc2)nc1Br", "Potency": "inactive"},
      {"smiles": "COc1ccc2[nH]cc(/C=C/C(=O)c3ccccc3)c2c1", "Potency": "inactive"},
      {"smiles": "O=C(C(NS(=O)(=O)c1cccs1)c1ccccc1)N1CCN(c2ccccc2)CC1", "note": "(configuration not stated)", "Potency": "inactive"},
      {"smiles": "Cc1ccccc1-c1nc(CN2CCC(C(=O)N3CCN(c4ccccn4)CC3)CC2)c(C)o1", "Potency": "inconclusive: 28.2 µM [inhibitor, single point]"},
      {"smiles": "CCOC(=S)SCc1cn2ccc(C)cc2n1", "Potency": "inconclusive: 25.1 µM [inhibitor, single point]"},
      {"smiles": "N[C@@H](C(=O)O)c1ccc(O)c(C(=O)O)c1", "Potency": "inconclusive: 35.5 µM [inhibitor, partial curve]"},
      {"smiles": "O=C(c1ccco1)N(CCCN1CCOCC1)c1nc(-c2ccc(Cl)cc2)cs1", "Potency": "inconclusive: 39.8 µM [inhibitor, single point]"},
      {"smiles": "CCCOc1ccc(-c2c(C(=O)N/N=C/c3ccc(C)cc3)nnn2-c2nonc2N)cc1", "Potency": "inconclusive: 35.5 µM [inhibitor, single point]"},
      {"smiles": "COc1ccc(NC(=O)N(Cc2cc3cc(OC)ccc3[nH]c2=O)CC2CCCO2)cc1", "note": "(configuration not stated)", "Potency": "inconclusive: 31.6 µM [inhibitor, partial curve]"},
      {"smiles": "O=C(Cn1c(-c2ccccc2)noc1=O)Nc1ccc(N2CCCCCC2)cc1", "Potency": "inactive"},
      {"smiles": "CC1(C)C(=O)OC(c2c3ccccc3cc3ccccc23)C(C)(C)C1=O", "note": "(configuration not stated)", "Potency": "inconclusive: 25.1 µM [inhibitor, partial curve]"},
      {"smiles": "O=C(CSc1nc2ccccc2[nH]1)NCc1ccc2c(c1)OCO2", "Potency": "inactive"},
      {"smiles": "Cc1ccc2nc(-c3ccncc3)c(Nc3ccccc3)n2c1", "Potency": "inconclusive: 25.1 µM [inhibitor, partial curve]"},
      {"smiles": "CCc1ccc2c(COn3nnc4ccc(S(=O)(=O)N(C)C)cc43)cc(=O)oc2c1", "Potency": "inconclusive: 39.8 µM [inhibitor, single point]"},
      {"smiles": "O=c1cc(-c2ccc(O)cc2)oc2c([C@H]3O[C@@H](CO)[C@@H](O)[C@@H](O)[C@@H]3O)c(O)cc(O)c12", "Potency": "inactive"},
      {"smiles": "CC(C)=CCc1c(O)cc2occ(-c3ccc4c(c3)OCO4)c(=O)c2c1O", "Potency": "inactive"},
      {"smiles": "O=C(N/N=C/c1ccco1)c1ccccn1", "Potency": "inconclusive: 39.8 µM [inhibitor, single point]"},
      {"smiles": "Cc1ccc(NC(=O)CO/N=C/c2ccc(N(C)C)cc2)cc1", "Potency": "inconclusive: 39.8 µM [inhibitor, single point]"},
      {"smiles": "O=C(NCCc1c[nH]c2ccccc12)OCCSS(=O)(=O)O", "Potency": "inconclusive: 35.5 µM [inhibitor, single point]"},
      {"smiles": "COCCCn1c(-c2ccc(OC)cc2)nc2nc3ccccc3nc21", "Potency": "inconclusive: 25.1 µM [inhibitor, partial curve]"},
      {"smiles": "CCC1=NN2C(=N)/C(=C/c3cc(C)n(-c4ccccc4)c3C)C(=O)N=C2S1", "Potency": "inconclusive: 31.6 µM [inhibitor, single point]"},
      {"smiles": "CCOc1ccc(CCNC(=O)COC(=O)/C=C/c2ccc(OCC#N)c(OC)c2)cc1OCC", "Potency": "inconclusive: 35.5 µM [inhibitor, single point]"},
      {"smiles": "COc1ccc(-c2ccc(CCC(=O)O)n2-c2ccccc2O)cc1", "Potency": "inconclusive: 22.4 µM [inhibitor, partial curve]"},
      {"smiles": "CCCCC1CCC(C(=O)N2CCOCC2)CC1", "note": "(configuration not stated)", "Potency": "inactive"},
      {"smiles": "COc1cc2c3nnc(-c4ccc(F)cc4)c-3cn(Cc3ccccc3)c2cc1OC", "Potency": "inconclusive: 28.2 µM [inhibitor, partial curve]"},
      {"smiles": "COc1ccc(NC(=O)c2sc(=S)[nH]c2N)cc1", "Potency": "inactive"},
      {"smiles": "Cc1ccc2nc(NCc3ccccc3)c(C=NCc3cccnc3)c(=O)n2c1", "Potency": "inconclusive: 31.6 µM [inhibitor, single point]"}
    ]}
  ]
}
